Assay results from the RNAGym collection of RNA variant scans (doi:10.1093/nar/gkz1192).
The source gives no read counts; variants with many changes may rest on few reads.

B1: CPEB3 Ribozyme (parent)
chain: UAACAGGGGGCCACAGCAGAAGCGUUCACGUCGCAGCCCCUGUCAGAUUCUGGUGAAUCUGCGAAUUCUGCUGUAUAUCUC

Variants of: B1
Assay: self-cleavage, relative activity (ratio to wild type); higher = more cleavage; in vitro, sequencing
How it was run: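 Libraries of CPEB3 self-cleaving ribozyme mutants came from rounds of error-prone PCR and carried barcodes, which DNA sequencing matched to variants. In vitro transcription used T7 RNA polymerase at 37°C for 5 hours, with a further 15 min in DNase I before EDTA stopped the reaction; the ribozymes cleaved during both steps. The RNA was reverse transcribed with template switching and sequenced on Illumina. Relative activity is the cleaved/total read fraction of a variant divided by that of the unmutated ribozyme, averaged over three batches with at least 5 reads.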

| Variant | self-cleavage |
| --- | --- |
| U41C A57U U66C | 0.23 |
| U41C A64G U72A | 0.62 |
| U41C A64G U74A A75G | 0.96 |
| U41C A64G U76C U78A | 1.07 |
| U41C A64G U80A | 0.92 |
| U41C A64G U80C | 0.89 |
| U41C A64U U76C | 0.25 |
| U41C A65U C68A | 0.25 |
| U41C A75G U80A | 1.14 |
| U41C A75G U80C | 0.85 |
| U41C C50A A64G | 0.61 |
| U41C C50G G61A A65G | 0.17 |
| U41C C50U U60A U80C | 0.47 |
| U41C C50U U78A | 1.08 |
| U41C G46A U48G | 0.26 |
| U41C G55C U58A A64U U69A | 0.28 |
| U41C G70U U78C | 0.34 |
| U41C G73A U74C | 1.21 |
| U41C U43A A45U G52A U60C | 0.28 |
| U41C U43A A56G U66A U76A U78C | 0.21 |
| U41C U43A U48A U60C G61U U69C | 0.11 |
| U41C U43A U58C | 0.37 |
| U41C U43A U80C | 0.71 |
| U41C U43C A47G U69A U78C | 0.13 |

| Variant | self-cleavage |
| --- | --- |
| U41C U43C A56U U69G | 0.12 |
| U41C U43C A57U | 0.15 |
| U41C U43C U49C A57U U60A A65G | 0.07 |
| U41C U43C U72C | 0.22 |
| U41C U43C U78C | 0.41 |
| U41C U48A U80C | 0.61 |
| U41C U48C A56G U72A U80C | 0.73 |
| U41C U48C U66C | 0.31 |
| U41C U48G U69A | 0.15 |
| U41C U49A A57G | 0.53 |
| U41C U49A U69C U72C | 0.28 |
| U41C U49C A57U U78C | 0.52 |
| U41C U49C A64U U66C U67A U74C A75U | 0.13 |
| U41C U49C A65G U72C | 0.19 |
| U41C U49C C81A | 0.37 |
| U41C U49C U51G | 0.64 |
| U41C U49C U54A A64C | 0.16 |
| U41C U49C U74C | 0.85 |
| U41C U51A U54A A64U U67C | 0.26 |
| U41C U51A U69C | 0.73 |
| U41C U51A U80A | 1.21 |
| U41C U51C A64G U80C | 0.4 |
| U41C U51C A65G | 0.51 |
| U41C U51C G53A U78C | 1.07 |

| Variant | self-cleavage |
| --- | --- |
| U41C U51C U58C | 0.54 |
| U41C U51C U58C A64G U78C | 0.23 |
| U41C U51C U69A U76C | 0.8 |
| U41C U54C U60C | 0.54 |
| U41C U54G C68U | 0.66 |
| U41C U58C U69C | 0.31 |
| U41C U58C U72C | 1.06 |
| U41C U58C U74C | 1.04 |
| U41C U60C A75G | 0.39 |
| U41C U60C U78C | 0.35 |
| U41C U60G A75U | 0.44 |
| U41C U60G U80C | 0.58 |
| U41C U66C U72C | 0.44 |
| U41C U67A U72C | 0.58 |
| U41C U67A U72C U76C | 0.52 |
| U41G A45U A57G U67C | 0.21 |
| U41G A47G U54C U67C | 0.12 |
| U41G A65G U66C | 0.11 |
| U41G C59A A65G | 0.13 |
| U41G U43A A65G U69A | 0.04 |
| U41G U43C G52C U54C | 0.15 |
| U41G U43C G55A U74A | 0.3 |
| U41G U49A A64G | 0.23 |
| U41G U49C A65G | 0.16 |

| Variant | self-cleavage |
| --- | --- |
| U41G U49C G55C U58C A64G | 0.3 |
| U41G U49C U78C | 0.05 |
| U41G U51A A64U | 0.35 |
| U41G U51C C68U U72G U78C | 0.14 |
| G42A A45G G46A | 0.22 |
| G42A A45G U80C | 0.12 |
| G42A A47C U54C U67C U69A | 0.52 |
| G42A A47G U51A G52U U78C | 0.07 |
| G42A A47G U51C U78C | 0.21 |
| G42A A47G U54A U60C | 0.09 |
| G42A A47G U58C A65G | 0.11 |
| G42A A56U A65U U78C | 0.04 |
| G42A C44U A47G | 0.16 |
| G42A C59A C62U | 0.23 |
| G42A G63U U72A | 0.23 |
| G42A U60A U72A U80A | 0.43 |
| G42C U43A A77G | 0.27 |
| G42U A45U U66A | 0.19 |
| G42U A47G A64U | 0.13 |
| G42U A47G U48A U67C U69C A75U U76C | 0.04 |
| G42U U66A U78C | 0.29 |
| G42U U69A U80A | 0.23 |
| U43A A45G U48C U51A | 0.25 |
| U43A A45G U49A | 0.21 |

| Variant | self-cleavage |
| --- | --- |
| U43A A45G U66A | 0.12 |
| U43A A45G U78C | 0.88 |
| U43A A47G A56U U74C | 0.66 |
| U43A A47G U48A A56G U58C U80G | 0.72 |
| U43A A47U U76A | 0.64 |
| U43A A56G A57G A75G | 0.35 |
| U43A A57G U66A | 0.38 |
| U43A A64U U67G A75U | 0.16 |
| U43A A65G U78G | 1.01 |
| U43A U48C A57U | 1.09 |
| U43A U48C A64G A65G | 0.27 |
| U43A U48C G55U U72C | 0.5 |
| U43A U48C U54C A77G | 0.56 |
| U43A U48C U60A | 0.19 |
| U43A U49A A57U U58C | 0.19 |
| U43A U49C U76C | 0.44 |
| U43A U51C U54A | 1.16 |
| U43A U51C U54C A56G | 0.84 |
| U43A U51C U66C | 0.54 |
| U43A U54A U60C | 0.7 |
| U43A U54A U69C | 0.77 |
| U43A U54C A75U U76C | 1.23 |
| U43A U54C G63A | 1.07 |
| U43A U58C A64G | 0.31 |

| Variant | self-cleavage |
| --- | --- |
| U43A U60A A65U U74C | 0.14 |
| U43A U60C U66C U78G | 0.11 |
| U43A U66A A75G | 0.54 |
| U43A U66A U69A | 0.35 |
| U43A U69A U80C | 0.62 |
| U43C A45C A57G A64U | 0.05 |
| U43C A45G A47G | 0.27 |
| U43C A45G A57G U58C | 0.16 |
| U43C A45G G46C U48A | 0.17 |
| U43C A45G U49A U60A G63A | 0.11 |
| U43C A45G U60A | 0.52 |
| U43C A45G U72A U74C U80A | 0.62 |
| U43C A45G U72C | 0.54 |
| U43C A45U A47G U80A | 0.23 |
| U43C A45U A57U U58C | 0.09 |
| U43C A45U A65G | 0.14 |
| U43C A45U G73A A75C U80C | 0.71 |
| U43C A45U U78C C81U | 0.2 |
| U43C A47C A56G U69A A77G | 0.09 |
| U43C A47G A64G U67A | 0.11 |
| U43C A47G U54C A57G | 0.38 |
| U43C A47G U78C | 0.33 |
| U43C A56G U58G U72C | 0.1 |
| U43C A56U U60A U74C A75U | 0.13 |

| Variant | self-cleavage |
| --- | --- |
| U43C A57G A64G | 0.33 |
| U43C A57G U69C | 0.21 |
| U43C A65G U72C | 0.32 |
| U43C A65U U69C A77U | 0.09 |
| U43C C44U U80C | 0.38 |
| U43C C50G U60G U69C | 0.14 |
| U43C C62U U69A | 0.13 |
| U43C G53A C62U | 0.52 |
| U43C G53U U54C | 1.03 |
| U43C G55U U60A | 0.09 |
| U43C U48C A56G U80C | 0.18 |
| U43C U48C G53A | 0.33 |
| U43C U48C G63U U69A | 0.11 |
| U43C U48C U49C | 0.04 |
| U43C U48C U60C | 0.11 |
| U43C U49C A57G U72G | 0.11 |
| U43C U51A G55A | 0.64 |
| U43C U51C A64G A77U | 0.3 |
| U43C U51C U67A | 0.16 |
| U43C U54A U67C | 0.18 |
| U43C U54A U78C | 0.78 |
| U43C U54C A56U | 0.34 |
| U43C U54C U69C | 0.21 |
